The values below come from the RNAGym collection of RNA variant scans (doi:10.1073/pnas.2313332121).

This sample is rich in variants without activity.

The chains are these.
B1: TPR 5TU (parent)
chain: GGAUCUUCUCGAUCUAACAAAAAAGACAAAUCUGCCACAAAGCUUGAGAGCAUCUUCGGAUGCAGAGGCGGCAGCCUUCGGUGGCGCGAUAGCGCCAACGUUCUCAACUAUGACACGCAAAACGCGUGCUCCGUUGAAUGGAGUUUAUCAUG

This data set covers variants of B1. Put plainly: polymerase ribozyme fitness, log enrichment relative to wild type (log ratio); higher = more active; in vitro selection for triplet polymerase activity. An outline of the steps:
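Input and output libraries were sequenced on Illumina after a single in vitro selection round, run in triplicate on PCR-built, transcribed mutant libraries of each subunit of a heterodimeric triplet polymerase ribozyme. Selection annealed libraries to a biotinylated primer, the partner subunit and triplets, incubated them frozen at −7 °C, then gel-excised extended constructs for streptavidin-bead capture and RT-PCR. Genotypes with ≥10 input reads and ≥1 read per output were kept. Fitness is the logarithm, taken in base 2, of genotype enrichment divided by wild-type enrichment, using inverse-variance-weighted replicate averages.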
For C8U A37U U61A G70A C96U, the “polymerase ribozyme fitness (log ratio)” value was no more than -4.2. For C8G G50C C75G C87A C96G C105U G128C, the “polymerase ribozyme fitness (log ratio)” value was no more than -4.2. For the variant C8A A22G C27A A41G G88U C125A U146C, the “polymerase ribozyme fitness (log ratio)” value was no more than -4.2. On to C8U A16C U53A C54A G71C G141C U148C C149U, for which the “polymerase ribozyme fitness (log ratio)” value is no more than -4.2. For the variant U7G A12G A52U C57A A73G C93G, the “polymerase ribozyme fitness (log ratio)” value was no more than -4.2. The result for U7G A64G C87A C105A U144G reads no more than -4.2.

Consider C8A G71U C79G, for which the “polymerase ribozyme fitness (log ratio)” value was no more than -4.2. As to U7G C10A A12U A47U C54G C96A, the “polymerase ribozyme fitness (log ratio)” value is no more than -4.2. Consider C8A A12G, for which the “polymerase ribozyme fitness (log ratio)” value is -3.98. Consider U7G A20U A24U C27G C43U C76G A89G C93U, for which the “polymerase ribozyme fitness (log ratio)” value was no more than -4.2. Take C8A A28U C79U C93U C105U: the “polymerase ribozyme fitness (log ratio)” value is no more than -4.2. For C8G G11C G34C C99G U151G, the “polymerase ribozyme fitness (log ratio)” value was no more than -4.2. C8U A17C A22C A64U A66G G94C: the “polymerase ribozyme fitness (log ratio)” value is no more than -4.2. Turning to U9A A21U U33C G46A C57U A91C G94A, the “polymerase ribozyme fitness (log ratio)” value was no more than -4.2.

Take C8G G65A G71C C96U A120G G126A: the “polymerase ribozyme fitness (log ratio)” value was no more than -4.2.

Regarding C8A C14U G50C C57U G68A, the “polymerase ribozyme fitness (log ratio)” value is no more than -4.2. Turning to C8U C10U A29U C57U G83A C96A, the “polymerase ribozyme fitness (log ratio)” value is no more than -4.2. Consider C8U C35A C72U C76U G88A G92U A121U, for which the “polymerase ribozyme fitness (log ratio)” value was no more than -4.2.

With C8U G59A G68C, the “polymerase ribozyme fitness (log ratio)” value is no more than -4.2. Consider C8G A20U A21U A30G U31A A60C G62A C131U, for which the “polymerase ribozyme fitness (log ratio)” value was no more than -4.2. As for C8A A22G U56A C57U C85G, the “polymerase ribozyme fitness (log ratio)” value is no more than -4.2. Regarding C8U C10G C27G G88C, the “polymerase ribozyme fitness (log ratio)” value was no more than -4.2. C8G C79A A91U A107C G124C U144C: the “polymerase ribozyme fitness (log ratio)” value was no more than -4.2. Regarding C8G A26C A91C U145G, the “polymerase ribozyme fitness (log ratio)” value was no more than -4.2. With C8U G74A C87A A115C U144C, the “polymerase ribozyme fitness (log ratio)” value was no more than -4.2. The result for U7G U53A U56G G84U U148C reads no more than -4.2. For U7G C35A A40G U77C A150U, the “polymerase ribozyme fitness (log ratio)” value was no more than -4.2. For U9A A16C C18G A19G U33C C43U A47C U61G A64C C96G U104G A119G A120G, the “polymerase ribozyme fitness (log ratio)” value is no more than -4.2. Turning to U7G C76A C93A G126U G140C, the “polymerase ribozyme fitness (log ratio)” value is no more than -4.2. As for C8G U31A G34U C57G C93G, the “polymerase ribozyme fitness (log ratio)” value is no more than -4.2. For C8U A21U G50C A52U U53A U55A A60G G70A U111G C125A A142C, the “polymerase ribozyme fitness (log ratio)” value was no more than -4.2.

As to C8G A19C G25C C51U A60G U90C G117C A150G, the “polymerase ribozyme fitness (log ratio)” value is no more than -4.2. In the case of U7C G68C G94C G100U U104G G117U A120G, the “polymerase ribozyme fitness (log ratio)” value was no more than -4.2. For the variant U7G A23C A39U U44C U55G A113C, the “polymerase ribozyme fitness (log ratio)” value was no more than -4.2.

C8U A37C A41C C95A A150G: the “polymerase ribozyme fitness (log ratio)” value was no more than -4.2. As to U7C A73U C96G G152A, the “polymerase ribozyme fitness (log ratio)” value is no more than -4.2. For the variant U7G A12U A60U G81C C96G U101G C114U G117A A121U, the “polymerase ribozyme fitness (log ratio)” value was no more than -4.2. In the case of C8A A22U A30C C69G G140C, the “polymerase ribozyme fitness (log ratio)” value is no more than -4.2. With C8A C57U G67C C95A A97G U151A, the “polymerase ribozyme fitness (log ratio)” value was no more than -4.2. C8G U56A C93U: the “polymerase ribozyme fitness (log ratio)” value was no more than -4.2. As for C8G U53C G58C C79U A89G U139C, the figure is no more than -4.2; as for U7C G83C C85G C103A, no more than -4.2. For C8A G50A C54U G81U A98U A137C A147C, the “polymerase ribozyme fitness (log ratio)” value was no more than -4.2.

As to U7G G11C U33C A64U C96A A122G G124A G140U, the “polymerase ribozyme fitness (log ratio)” value was no more than -4.2. Regarding C8A A47G A49G A52C U55A G88U U104A A119U U146C U148A, the “polymerase ribozyme fitness (log ratio)” value is no more than -4.2. As to U7G U102G, the “polymerase ribozyme fitness (log ratio)” value was no more than -4.2. As for C8U A17U C93U C105U, the figure is no more than -4.2; as for U7G A23U A73G C85G, no more than -4.2; as for U7G A24U G86U A91C C99G U109G, no more than -4.2.

Take C8U U13G A40C A64C C69G: the “polymerase ribozyme fitness (log ratio)” value is no more than -4.2. For C8G A26C G50A C95A A98G A115U G136C, the “polymerase ribozyme fitness (log ratio)” value was no more than -4.2.

Take C8G A66U A91U G117U A120G G136A A137C U139G U144C: the “polymerase ribozyme fitness (log ratio)” value is no more than -4.2.

As to C8U A12C C38U A47U A49C C85G A150G, the “polymerase ribozyme fitness (log ratio)” value was no more than -4.2.

Take C8U G62A A97U A106U C116G G124C: the “polymerase ribozyme fitness (log ratio)” value is no more than -4.2.

On to C8G A30G C35U G65U G94U U135C U144G, for which the “polymerase ribozyme fitness (log ratio)” value was no more than -4.2. As for C8A C36A A40C C85U G92A C108U, the “polymerase ribozyme fitness (log ratio)” value is no more than -4.2. As to C8A C18G A40G C54G A73C C87A U90A C114U, the “polymerase ribozyme fitness (log ratio)” value was no more than -4.2. With C8G A29C G34C G94C A138U, the “polymerase ribozyme fitness (log ratio)” value was no more than -4.2.

As to C8G U9C C35U A49C U53A G67A C87A A115G G141A C149G, the “polymerase ribozyme fitness (log ratio)” value was no more than -4.2. Turning to C8A C27U U56C U111C A138G, the “polymerase ribozyme fitness (log ratio)” value was no more than -4.2. For the variant U7G A21U G48U U53G C76U C79A C87G G100A C105U C132G G140U, the “polymerase ribozyme fitness (log ratio)” value is no more than -4.2.

Consider U7G A47U U55A C57A C63U C95U, for which the “polymerase ribozyme fitness (log ratio)” value was -3.6. C8G A28C A37U C57U A91U A113U C132U G143C: the “polymerase ribozyme fitness (log ratio)” value is no more than -4.2. For the variant C8G C10U C51A G80C C95A U102G G124U A137C, the “polymerase ribozyme fitness (log ratio)” value is no more than -4.2. With U9A A26U G46C G48A A60G C69A C72A G80C, the “polymerase ribozyme fitness (log ratio)” value was no more than -4.2. Take C8A A12G A17G U56A A97U A147C: the “polymerase ribozyme fitness (log ratio)” value was no more than -4.2. Regarding C8G A28U G94A, the “polymerase ribozyme fitness (log ratio)” value was no more than -4.2. As for C8G A47C C54G, the figure is no more than -4.2; as for C8A C10U A26U A29G U78G C93A C116U C125U, no more than -4.2; as for U9A C36A C72G G92A C129A, no more than -4.2.

Turning to U9A A12C A20G C43G A73U C87A C103G U127G C149A, the “polymerase ribozyme fitness (log ratio)” value was no more than -4.2. For C8U C54U U56C C85A G92C, the “polymerase ribozyme fitness (log ratio)” value is no more than -4.2. The result for U7C C57G A98G reads -3.3. Regarding U7G G42A U44A G68C A91U G117A U135A, the “polymerase ribozyme fitness (log ratio)” value is no more than -4.2.

Turning to C8U C18G A49C C54G G74A U78C G92A A142U, the “polymerase ribozyme fitness (log ratio)” value is no more than -4.2. For the variant U7G A19G G59C C76U C87A G128C G133C U139A, the “polymerase ribozyme fitness (log ratio)” value is no more than -4.2. The result for C8U C14G A23G C27A A28U reads no more than -4.2. As for U9A A26U C36U A91G A120C G124A, the “polymerase ribozyme fitness (log ratio)” value was no more than -4.2. For C8A U53A C57G A66U G92C C129U, the “polymerase ribozyme fitness (log ratio)” value is no more than -4.2. On to C8G A28U A29C U53A C57U C69U, for which the “polymerase ribozyme fitness (log ratio)” value was no more than -4.2.

U7G C8G A39C A52C U53A U55A C95U A98G: the “polymerase ribozyme fitness (log ratio)” value is no more than -4.2. As for U7G A47U G128U, the “polymerase ribozyme fitness (log ratio)” value is no more than -4.2. With C8G A21C G94C C99A, the “polymerase ribozyme fitness (log ratio)” value was no more than -4.2.
